The values that follow come from the antibiotic and cytotoxicity screens of Wong et al. (2023).

In one experiment the test system is HSkMC. The experiment is described as follows: cytotoxicity call (relative viability < 0.9). The following applies: 10 µM.
In another experiment the test system is HepG2. The experiment is described as follows: cytotoxicity call (relative viability < 0.9). The note with it: 10 µM.
A further experiment deals with S. aureus RN4220. The experiment is described as follows: growth inhibition call (relative growth <= 0.2). The note with it: 50 µM.

The other results are listed elsewhere or left out.

In the case of `C[C@H]1CN([C@@H](C)CO)C(=O)c2c(c3ccccc3n2C)-c2ccccc2CO[C@H]1CN(C)C(=O)c1ccc(F)cc1`, the cytotoxicity call with HSkMC and in the experiment on HepG2 was “inactive” each time. Also, the growth inhibition call in the experiment with S. aureus RN4220 is “inactive”.

As for `C[C@H](CO)N1C[C@H](C)[C@H](CN(C)S(=O)(=O)c2ccc(Cl)cc2)OCCCC[C@H](C)Oc2ccc(NC(=O)Nc3ccc4c(c3)OCO4)cc2C1=O`, the cytotoxicity call in the experiment on HSkMC and in the experiment with HepG2 was “inactive” each time. For the same compound, the growth inhibition call in the experiment with S. aureus RN4220 is “inactive”.

As to `COc1ccc(S(=O)(=O)Nc2ccc3c(c2)C(=O)N([C@H](C)CO)C[C@H](C)[C@H](CN(C)S(=O)(=O)c2cn(C)cn2)OCCCC[C@@H](C)O3)cc1`, the cytotoxicity call in the experiment with HSkMC and in the experiment on HepG2 was “inactive” each time. In addition, the growth inhibition call with S. aureus RN4220 is “inactive”.

Turning to `CCC1(O)CC2CN(CCc3c([nH]c4ccccc34)C(C(=O)OC)(c3cc4c(cc3OC)N(C)C3C(O)(C(=O)OC)C(OC(C)=O)C5(CC)C=CCN6CCC43C65)C2)C1.O=S(=O)(O)O` (stereo unspecified), in the experiment on HSkMC, the cytotoxicity call is “inactive”. In addition, the cytotoxicity call in the experiment on HepG2 was “active”. Also, the growth inhibition call in the experiment with S. aureus RN4220 was “inactive”.

For the compound `Nc1nc(=O)[nH]cc1F`, the cytotoxicity call in the experiment on HSkMC and in the experiment on HepG2 was “inactive” throughout. Also, in the experiment with S. aureus RN4220, the growth inhibition call was “inactive”.

As to `CCNC(=O)C[C@@H]1C=C[C@@H](NC(=O)C2CCOCC2)[C@H](CO)O1`, the cytotoxicity call in the experiment on HSkMC and in the experiment with HepG2 was “inactive” each time. In the experiment on S. aureus RN4220, the growth inhibition call was “inactive”.

Consider `Cc1ccc(S(=O)(=O)N(C)C[C@H]2Oc3ccc(NS(=O)(=O)c4ccc(F)cc4)cc3CC(=O)N([C@H](C)CO)C[C@@H]2C)cc1`, for which the cytotoxicity call with HSkMC and in the experiment with HepG2 was “inactive” each time. Further, the growth inhibition call with S. aureus RN4220 is “inactive”.

`COc1ccc(S(=O)(=O)Nc2ccc3c(c2)C(=O)N([C@H](C)CO)C[C@@H](C)[C@@H](CN(C)C(=O)Nc2ccccc2)OCCCC[C@@H](C)O3)cc1`: the cytotoxicity call in the experiment on HSkMC and with HepG2 was “inactive” each time. Further, the growth inhibition call in the experiment on S. aureus RN4220 is “inactive”.

As to `COc1ccc(-n2c(N)cc(=O)[nH]c2=O)cc1`, the cytotoxicity call in the experiment on HSkMC and in the experiment with HepG2 was “inactive” throughout. The growth inhibition call with S. aureus RN4220 is “inactive”.

Take `C[C@H]1CN([C@@H](C)CO)C(=O)c2cc(NC(=O)Cc3ccccc3)ccc2O[C@H]1CN(C)Cc1ccc(Cl)c(Cl)c1`: the cytotoxicity call in the experiment with HSkMC and with HepG2 was “inactive” throughout. Further, the growth inhibition call with S. aureus RN4220 is “inactive”.

`Oc1ccccc1CNc1ccc(C2CCCCC2)cc1`: the cytotoxicity call in the experiment on HSkMC and with HepG2 was “inactive” in each case. The growth inhibition call in the experiment on S. aureus RN4220 is “inactive”.

`COc1ccc(S(=O)(=O)Nc2cccc3c2O[C@@H](CN(C)C(=O)Nc2cccc4ccccc24)[C@@H](C)CN([C@@H](C)CO)C3=O)cc1`: the cytotoxicity call in the experiment with HSkMC and in the experiment with HepG2 was “inactive” in each case. Further, the growth inhibition call in the experiment with S. aureus RN4220 was “inactive”.

As to `C[C@H](CO)N1C[C@H](C)[C@H](CN(C)Cc2ccc(Oc3ccccc3)cc2)Oc2ccc(NC(=O)Nc3ccccc3)cc2CC1=O`, the cytotoxicity call in the experiment on HSkMC and with HepG2 was “inactive” in each case. For the same compound, the growth inhibition call with S. aureus RN4220 is “inactive”.

With `CC(C)c1c(C(=O)Nc2ccccc2)c(-c2ccccc2)c(-c2ccc(F)cc2)n1CCC(O)CC(O)CC(=O)[O-].[Ca+2]` (stereo unspecified), the cytotoxicity call in the experiment on HSkMC and with HepG2 was “inactive” each time. Moreover, the growth inhibition call in the experiment with S. aureus RN4220 was “inactive”.

Turning to `C[C@H](CO)N1C[C@H](C)[C@H](CN(C)C(=O)Nc2ccc(C(F)(F)F)cc2)OCCCC[C@H](C)Oc2ccc(NC(=O)Nc3ccccc3)cc2C1=O`, the cytotoxicity call with HSkMC and in the experiment with HepG2 was “inactive” each time. Further, the growth inhibition call with S. aureus RN4220 is “inactive”.

In the case of `Br.CN1CCCC1Cc1c[nH]c2ccc(CCS(=O)(=O)c3ccccc3)cc12` (stereo unspecified), the cytotoxicity call in the experiment on HSkMC and with HepG2 was “inactive” throughout. For the same compound, the growth inhibition call with S. aureus RN4220 is “inactive”.

Turning to `C[C@@H]1CN([C@H](C)CO)C(=O)Cc2cc(NS(=O)(=O)c3ccc(Cl)cc3)ccc2O[C@@H]1CN(C)S(C)(=O)=O`, the cytotoxicity call with HSkMC and with HepG2 was “inactive” throughout. Besides, the growth inhibition call in the experiment with S. aureus RN4220 was “inactive”.

With `C[C@H]1CN([C@@H](C)CO)C(=O)Cc2cc(NS(C)(=O)=O)ccc2O[C@H]1CN(C)C(=O)Nc1ccccc1`, the cytotoxicity call with HSkMC and with HepG2 was “inactive” throughout. Besides, in the experiment on S. aureus RN4220, the growth inhibition call was “inactive”.

In the case of `C[C@H](CO)N1C[C@H](C)[C@H](CN(C)Cc2ccc(C(=O)O)cc2)Oc2c(NC(=O)c3ccncc3)cccc2C1=O`, the cytotoxicity call in the experiment with HSkMC and in the experiment with HepG2 was “inactive” each time. Besides, the growth inhibition call in the experiment with S. aureus RN4220 is “inactive”.

On to `COc1ccc(S(=O)(=O)N(C)C[C@H]2Oc3cc(C4=CCCC4)ccc3S(=O)(=O)N([C@@H](C)CO)C[C@H]2C)cc1`, for which the cytotoxicity call in the experiment with HSkMC and with HepG2 was “inactive” throughout. In addition, in the experiment with S. aureus RN4220, the growth inhibition call is “inactive”.

Take `CN(C)CC(=O)N[C@@H]1CC[C@H](CCNC(=O)C2CC2)O[C@H]1CO`: the cytotoxicity call with HSkMC and with HepG2 was “inactive” throughout. Moreover, the growth inhibition call with S. aureus RN4220 was “inactive”.

On to `C/C(Cc1ncn(-c2cc(C)on2)n1)=N\O`, for which the cytotoxicity call in the experiment with HSkMC and in the experiment on HepG2 was “inactive” each time. Besides, in the experiment on S. aureus RN4220, the growth inhibition call is “inactive”.

Consider `C[C@@H]1CN([C@@H](C)CO)S(=O)(=O)c2ccc(C#Cc3ccncc3)cc2O[C@@H]1CN(C)S(=O)(=O)c1ccc(F)cc1`, for which the cytotoxicity call in the experiment with HSkMC is “inactive”. In the experiment on HepG2, the cytotoxicity call was “active”. Besides, the growth inhibition call in the experiment with S. aureus RN4220 is “inactive”.

With `C[C@@H]1CN([C@@H](C)CO)C(=O)Cc2cc(NS(=O)(=O)c3cccs3)ccc2O[C@@H]1CN(C)S(C)(=O)=O`, the cytotoxicity call with HSkMC and in the experiment with HepG2 was “inactive” each time. Further, the growth inhibition call in the experiment with S. aureus RN4220 is “inactive”.

`C[C@H](CO)N1C[C@H](C)[C@H](CN(C)Cc2ccc(C(F)(F)F)cc2)OCCCC[C@H](C)Oc2ccc(NC(=O)CCCN(C)C)cc2C1=O`: the cytotoxicity call in the experiment on HSkMC is “inactive”. Moreover, in the experiment on HepG2, the cytotoxicity call is “active”. Also, the growth inhibition call with S. aureus RN4220 is “inactive”.

As for `Cc1noc(C)c1NC(=O)N(C)C[C@H]1OCCCC[C@H](C)Oc2ccc(NS(=O)(=O)c3ccc(F)cc3)cc2C(=O)N([C@@H](C)CO)C[C@@H]1C`, the cytotoxicity call in the experiment on HSkMC (human skeletal muscle cells) and in the experiment on HepG2 was “inactive” throughout. The growth inhibition call in the experiment on S. aureus RN4220 is “inactive”.

On to `CCCCCCCCCCNc1cc(CO)c2cc[nH]c2c1`, for which the cytotoxicity call in the experiment with HSkMC and in the experiment with HepG2 was “inactive” each time. Moreover, the growth inhibition call in the experiment with S. aureus RN4220 was “inactive”.
